# PubChem BioAssay AID1345083 (National Center for Advancing Translational Sciences (NCATS), 2018)
# Hit rate of the full screen: of about 94,000 compounds, about 6,200 (6.6%) were called active. This list was built around the results that the source calls inconclusive (neither active nor inactive); the mix of calls is not that of the screen. Calls follow the shape of the dose curve; as a rule, active = well fitted inhibition curve with a large enough effect; inconclusive = small, poorly fitted or top-dose-only effect; inactive = flat fitted curve, though single readings scatter. Potencies of inconclusive entries are doubtful fits and often do not repeat.
# Test: Cytotoxic Profiling in HEK 293 Cell Line of Diverse Libraries Using Quantitative High-Throughput Screening; also: nearly all actives have a fitted effect of over 60% in size
# Conditions: HEK 293 viability, ATP luminescence (CellTiter-Glo), 48-72 h; series mostly up to 115 µM
# In short: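 CellTiter-Glo luminescence (cellular ATP) was read after 48 or 72 hr of compound exposure at 37 degree Celsius. Cells were HEK 293 plated at 250 cells/well.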
# Potency is read from the fitted curve at half-maximal effect; tags tell the direction and shape of the fitted curve.
row,Compound,Potency
1,c1cc(Cn2ccc3c(N4CCOCC4)nc(-c4cncnc4)cc32)ccn1,"inconclusive: 100 µM [inhibitor, partial curve]"
2,COc1ccc(C2(C(=O)NC3CCc4nnc(C)n4CC3)CC2)cc1 (configuration not stated),inactive
3,CCC(=O)Nc1cccc(C2OC(=O)N(Cc3ccc(C)cc3)C2C(=O)NCC2CC2)c1 (configuration not stated),"inconclusive: 100 µM [inhibitor, single point]"
4,CC(C)c1noc(CN(C)C(=O)c2csc3nc(-c4ccc(F)cc4)cn23)n1,active: 44.7 µM
5,COC(=O)C1=C(C)N=C2SC=C(CC(=O)N3CCCCC3C)N2C1c1ccc(OC)cc1 (configuration not stated),"inconclusive: 79.4 µM [inhibitor, partial curve, poor fit]"
6,O=C(Nc1ccccc1F)N1CCC2(CCCN(C3CCCCC3)C2=O)C1 (configuration not stated),"inconclusive: 89.1 µM [inhibitor, single point]"
7,CC(C)CCCC1CN(C(=O)c2c(O)cccc2O)CCO1 (configuration not stated),"inconclusive: 39.8 µM [inhibitor, partial curve, poor fit]"
8,CCCc1noc(-c2ccn3c(CNC(=O)Cc4ccc(Cl)cc4)nnc3c2)n1,inactive
9,COc1ccc(CN2CC[C@H](c3nnc(-c4ccco4)o3)C2)cc1,inactive
10,O=C(CCC1CCN(c2cc(NC3CC3)ncn2)CC1)NCc1cc(F)cc(F)c1,"inconclusive: 31.6 µM [inhibitor, partial curve, poor fit]"
11,COCCC1CN(Cc2nc(-c3cccc(C(F)(F)F)c3)oc2C)CCO1 (configuration not stated),"inconclusive: 44.7 µM [inhibitor, partial curve, poor fit]"
12,Cc1cccc(CC(=O)N2CCC(N3C(=O)CCC3C(=O)NCc3ccccc3)CC2)c1 (configuration not stated),inactive
13,CCN1C(=O)C2(CCN(S(=O)(=O)c3ccc4c(c3)OCCO4)CC2)c2ccccc21,"inconclusive: 39.8 µM [inhibitor, single point]"
14,Cc1ccc(Nc2ccnc(N3CCCC(C(=O)NCc4ccc(F)cc4)C3)n2)cc1 (configuration not stated),"inconclusive: 11.2 µM [inhibitor, full curve, poor fit]"
15,COc1ccc(CN2Cc3[nH]cnc3C[C@H]2c2nc(-c3ccncc3)no2)cc1,"inconclusive: 100 µM [inhibitor, partial curve, poor fit]"
16,COCCN1CC(CO)C2(CCN(Cc3ccc(Cl)c(F)c3)CC2)C1 (configuration not stated),"inconclusive: 50.1 µM [inhibitor, partial curve, poor fit]"
17,CCOc1ccc2c(n1)CCN(C(=O)Cc1cccc(OC)c1)C2,inactive
18,FC(F)(F)Oc1ccc(-c2cnc([C@@H]3COCCN3Cc3ccncc3)[nH]2)cc1,"inconclusive: 89.1 µM [inhibitor, partial curve, poor fit]"
19,COc1ccc(C2Cn3cnc(-c4nc(-c5ccc(OC)c(OC)c5)no4)c3CO2)cc1 (configuration not stated),"inconclusive: 22.4 µM [inhibitor, full curve]"
20,CCn1ncc(N2CCCC(CC(=O)NCc3ccc(C)cc3)C2)cc1=O (configuration not stated),"inconclusive: 79.4 µM [inhibitor, single point]"
21,CCc1noc(-c2cn(C3CCN(C(=O)c4ccc(OC)c(OC)c4)C3)nn2)n1 (configuration not stated),"inconclusive: 89.1 µM [inhibitor, single point]"
22,CCOc1ccc(CN2CCN(c3ncnc4[nH]ccc34)CC2CCO)cc1 (configuration not stated),inactive
23,CC(C)Oc1cccc2c1c(NC(=O)c1ccn(C)n1)nn2Cc1ccccc1,"inconclusive: 39.8 µM [inhibitor, full curve, poor fit]"

row,Compound,Potency
1,O=C(c1ccsc1)N1CCC2(CC1)CC(N1CCOCC1)CCO2 (configuration not stated),inactive
2,Cc1ccsc1-c1[nH]nc2ncc(-c3cccc(O)c3)nc12,"inconclusive: 50.1 µM [inhibitor, partial curve, poor fit]"
3,CCNC(=O)C1C(c2cccc(NC(=O)c3ccccc3)c2)OC(=O)N1Cc1ccc(F)cc1 (configuration not stated),"inconclusive: 79.4 µM [inhibitor, partial curve, poor fit]"
4,O=C(Cc1ccccn1)N1CCCC(C(=O)N2CCC(N3CCOCC3=O)CC2)C1 (configuration not stated),inactive
5,Cn1nc(C(=O)N2CCC3(CC2)N=C(c2ccc(Br)cc2)NO3)c2ccccc21,"inconclusive: 70.8 µM [inhibitor, partial curve, poor fit]"
6,Cc1ccccc1S(=O)(=O)N1CCCC(Cc2noc(-c3cnccn3)n2)C1 (configuration not stated),"inconclusive: 79.4 µM [inhibitor, single point]"
7,CN(C)c1cccc(-c2nccc3c(=O)cc(N(C)C4CCOCC4)oc23)c1,inactive
8,Cn1ccnc1CNC(=O)C[C@@H]1C[C@H]2O[C@H](CNCc3cnccc3C(F)(F)F)[C@@H](O)[C@H]2O1,inactive
9,CC(C)(C)n1nnnc1C1CC2(CCOCC2)C(=O)N1Cc1cccc(F)c1 (configuration not stated),inactive
10,Cc1ccc(OCc2nc(C3CCCN3C(=O)Nc3ccc(C)c(F)c3)no2)cc1 (configuration not stated),active: 89.1 µM
11,CC(C)NC(=O)N1CCC[C@@H](O)[C@H](NC(=O)c2ccc(OCCN3CCCC3)cc2)C1,inactive
12,O=C(NC1CCN(c2ccnc3ccnn23)CC1)c1ccncc1,"inconclusive: 100 µM [inhibitor, partial curve]"
13,Clc1cccc(-c2cnc([C@@H]3COCCN3Cc3cnc4ccccc4c3)[nH]2)c1,active: 63.1 µM
14,O=C(C1CCCN(Cc2cccc(-c3cccs3)c2)C1)N1CCOCC1 (configuration not stated),"inconclusive: 44.7 µM [inhibitor, partial curve]"
15,COc1ccccc1CCC(=O)N1CCC2(CC1)N=C(c1cccc(Br)c1)NO2,"inconclusive: 89.1 µM [inhibitor, single point]"
16,COc1cccc(-c2cccc(C(=O)N3CCCC3C(=O)NC3CCCC3)c2)c1 (configuration not stated),inactive
17,Cc1ccc(CN2CC(Oc3cccc(C(=O)N4CCOCC4)c3)C2)s1,"inconclusive: 89.1 µM [inhibitor, single point]"
18,O=C(CCC[C@H]1NC[C@@H]2C[C@H]1CN(Cc1ccccc1)C2)NCC1CCCCC1,"inconclusive: 79.4 µM [inhibitor, single point]"
19,COC[C@@H]1[C@H](C(=O)NCCn2ccnc2C)CCCN1Cc1ccccc1,inactive
20,COc1ccccc1-c1cc(C(=O)NC2CCCCCC2)nn2cnnc12,"inconclusive: 17.8 µM [inhibitor, full curve, poor fit]"
21,COC(=O)N1CCN(C(=O)c2nc3cccnc3n(-c3ccccc3OC)c2=O)CC1,inactive
22,O=C(C1CCCN1C(=O)c1ccc(F)cc1)N1CCC(N2CCOCC2=O)CC1 (configuration not stated),inactive
23,Cc1cccc(-c2ccc3c(c2)C(=O)N2CC[C@H](NC(=O)NC(C)C)[C@H]2C(=O)N3)c1C,"inconclusive: 39.8 µM [inhibitor, partial curve, poor fit]"

row,Compound,Potency
1,CCn1cc(S(=O)(=O)NCC(=O)N2CCCCCNC(=O)CC2c2ccccc2)cn1 (configuration not stated),inactive
2,O=C(NCc1ccco1)c1cc(-c2ccccc2F)cc2c1OCCN2Cc1cccnc1,"inconclusive: 39.8 µM [inhibitor, full curve]"
3,Cc1ccc(-c2noc([C@@H]3C[C@H](NS(=O)(=O)c4ccc(C)cc4)CN3C)n2)cc1,active: 70.8 µM
4,O=C(c1ccc(Oc2ccc(CN3CCCC3)cc2F)nc1)N1CCCCC1,"inconclusive: 50.1 µM [inhibitor, partial curve, poor fit]"
5,C=CCN1Cc2cc(F)ccc2N(CC(O)COc2ccc(OC)cc2)CCC1=O (configuration not stated),"inconclusive: 89.1 µM [inhibitor, partial curve]"
6,Cc1nnc(-c2cc(-c3cccc(F)c3)ccn2)n1CCN1CCOCC1,"inconclusive: 100 µM [inhibitor, partial curve]"
7,O=C(NCc1ccc(Cl)cc1)c1ccc2oc(-c3ccnc(Cl)c3)nc2c1,inactive
8,COc1ccc(OCC2CN(CC3CC3)[S+](=O)([O-])c3cnccc3O2)cc1 (configuration not stated),"inconclusive: 39.8 µM [inhibitor, single point]"
9,COc1ccc(CNC(=O)C2CCCCN2Cc2ccc(-c3ccsc3)cc2)cc1OC (configuration not stated),active: 39.8 µM
10,CC1(CNCc2ccccc2)COc2ccc(C(=O)Nc3cccnc3)cc2N1 (configuration not stated),"inconclusive: 89.1 µM [inhibitor, partial curve, poor fit]"
11,Cc1cccc(-c2ncc(CN(CCC(N)=O)Cc3ccccc3)cn2)c1,"inconclusive: 79.4 µM [inhibitor, partial curve]"
12,CNC(=O)COC1CN(C(=O)c2ccc(C)cc2)CCC(=O)N(C)c2ccccc21 (configuration not stated),inactive
13,Fc1cccc(Nc2cnc3ccc(-c4ccccc4)nn23)c1,"inconclusive: 63.1 µM [inhibitor, partial curve, poor fit]"
14,Cc1nc2c(c(-c3ccc(O)cc3)n1)CN(Cc1cncs1)CCC2,inactive
15,COc1ccc(-c2cc(CNc3ncncn3)no2)cc1,"inconclusive: 44.7 µM [inhibitor, partial curve, poor fit]"
16,Cc1nc(N2CCN(C(=O)Cc3ccc(Cl)cc3)CC2)cc(C(F)(F)F)n1,inactive
17,CNC(=O)c1cc(C2CC2)nc2c1c(C1CCCN1C(=O)C(C)(C)C)nn2C (configuration not stated),inactive
18,Cc1ccc(-c2cc(C(=O)N3CCC(c4nc(C5CCOCC5)no4)C3)c3ccccc3n2)cc1C (configuration not stated),active: 11.2 µM
19,O=C1CC(c2ccccc2)N(C(=O)CNC(=O)c2ccc3cc[nH]c3c2)CCCCCN1 (configuration not stated),"inconclusive: 100 µM [inhibitor, partial curve, poor fit]"
20,COc1ccc(-c2cc(N3CCCN(C(=O)c4ccco4)CC3)n[nH]2)cc1,"inconclusive: 70.8 µM [inhibitor, single point]"
21,COc1ccc(C)cc1NC(=O)Cn1c(-c2ccc(F)cc2)nc(C)cc1=O,"inconclusive: 35.5 µM [inhibitor, full curve]"
